These are yes or no findings as the source states them, for the method shown. In cells and extracts the contact can be indirect. Some binding calls cover weakened binding; strength is not graded here.

Amino acid sequences for entries named in this document (tags omitted). A change or cut given only in a name is not applied to a line headed by its entry. Chains listed by the source or under a name are the forms on record and can include a tag or linker.
UniProt Q8K045: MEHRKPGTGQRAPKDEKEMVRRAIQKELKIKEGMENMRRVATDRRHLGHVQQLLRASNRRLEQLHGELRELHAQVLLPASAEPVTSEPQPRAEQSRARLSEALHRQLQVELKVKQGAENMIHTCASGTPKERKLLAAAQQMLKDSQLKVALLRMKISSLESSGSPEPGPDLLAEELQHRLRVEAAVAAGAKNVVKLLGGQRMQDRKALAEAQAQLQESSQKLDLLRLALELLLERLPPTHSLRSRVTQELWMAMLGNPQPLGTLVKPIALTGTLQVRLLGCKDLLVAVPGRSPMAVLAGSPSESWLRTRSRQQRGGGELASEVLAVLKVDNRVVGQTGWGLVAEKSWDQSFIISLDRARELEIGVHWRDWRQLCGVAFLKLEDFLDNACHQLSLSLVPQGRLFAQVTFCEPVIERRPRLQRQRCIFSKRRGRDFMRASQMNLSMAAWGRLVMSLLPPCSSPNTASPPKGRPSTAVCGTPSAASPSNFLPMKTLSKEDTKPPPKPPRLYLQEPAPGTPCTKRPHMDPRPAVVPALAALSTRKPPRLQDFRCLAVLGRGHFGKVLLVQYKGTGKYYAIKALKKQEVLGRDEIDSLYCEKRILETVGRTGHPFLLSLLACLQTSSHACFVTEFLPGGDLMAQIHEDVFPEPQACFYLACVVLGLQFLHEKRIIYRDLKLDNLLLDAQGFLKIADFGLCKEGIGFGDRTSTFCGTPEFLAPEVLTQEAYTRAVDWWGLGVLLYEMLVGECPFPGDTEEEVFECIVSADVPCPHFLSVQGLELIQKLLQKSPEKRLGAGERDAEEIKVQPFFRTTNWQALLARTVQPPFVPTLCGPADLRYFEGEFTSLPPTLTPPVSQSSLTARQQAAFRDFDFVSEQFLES
Flag and GFP-fused PKN3 KD (mouse) (Q8K045, form named): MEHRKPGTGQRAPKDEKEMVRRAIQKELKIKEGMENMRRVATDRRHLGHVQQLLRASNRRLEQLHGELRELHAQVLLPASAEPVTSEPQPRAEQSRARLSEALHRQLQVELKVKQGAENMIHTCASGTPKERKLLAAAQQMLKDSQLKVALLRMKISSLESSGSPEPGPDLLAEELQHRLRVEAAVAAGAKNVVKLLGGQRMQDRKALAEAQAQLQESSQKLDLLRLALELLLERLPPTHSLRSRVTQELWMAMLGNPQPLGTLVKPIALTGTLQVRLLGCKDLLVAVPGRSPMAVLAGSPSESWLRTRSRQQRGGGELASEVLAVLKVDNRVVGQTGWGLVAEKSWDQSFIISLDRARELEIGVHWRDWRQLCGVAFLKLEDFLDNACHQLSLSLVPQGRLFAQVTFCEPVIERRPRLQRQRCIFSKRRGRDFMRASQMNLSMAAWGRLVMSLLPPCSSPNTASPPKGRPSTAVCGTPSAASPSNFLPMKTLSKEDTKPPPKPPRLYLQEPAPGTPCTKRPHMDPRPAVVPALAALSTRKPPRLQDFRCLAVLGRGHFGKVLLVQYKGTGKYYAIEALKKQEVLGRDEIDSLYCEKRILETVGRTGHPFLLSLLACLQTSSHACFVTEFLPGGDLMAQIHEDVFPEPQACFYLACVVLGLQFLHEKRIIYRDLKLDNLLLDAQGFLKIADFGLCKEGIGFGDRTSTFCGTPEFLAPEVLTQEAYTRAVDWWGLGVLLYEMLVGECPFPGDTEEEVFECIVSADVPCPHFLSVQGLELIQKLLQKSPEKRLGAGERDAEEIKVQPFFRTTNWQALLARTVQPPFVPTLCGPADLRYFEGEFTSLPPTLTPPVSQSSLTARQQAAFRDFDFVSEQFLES
Flag and GFP-fused PKN3 mPR (mouse) (Q8K045, form named): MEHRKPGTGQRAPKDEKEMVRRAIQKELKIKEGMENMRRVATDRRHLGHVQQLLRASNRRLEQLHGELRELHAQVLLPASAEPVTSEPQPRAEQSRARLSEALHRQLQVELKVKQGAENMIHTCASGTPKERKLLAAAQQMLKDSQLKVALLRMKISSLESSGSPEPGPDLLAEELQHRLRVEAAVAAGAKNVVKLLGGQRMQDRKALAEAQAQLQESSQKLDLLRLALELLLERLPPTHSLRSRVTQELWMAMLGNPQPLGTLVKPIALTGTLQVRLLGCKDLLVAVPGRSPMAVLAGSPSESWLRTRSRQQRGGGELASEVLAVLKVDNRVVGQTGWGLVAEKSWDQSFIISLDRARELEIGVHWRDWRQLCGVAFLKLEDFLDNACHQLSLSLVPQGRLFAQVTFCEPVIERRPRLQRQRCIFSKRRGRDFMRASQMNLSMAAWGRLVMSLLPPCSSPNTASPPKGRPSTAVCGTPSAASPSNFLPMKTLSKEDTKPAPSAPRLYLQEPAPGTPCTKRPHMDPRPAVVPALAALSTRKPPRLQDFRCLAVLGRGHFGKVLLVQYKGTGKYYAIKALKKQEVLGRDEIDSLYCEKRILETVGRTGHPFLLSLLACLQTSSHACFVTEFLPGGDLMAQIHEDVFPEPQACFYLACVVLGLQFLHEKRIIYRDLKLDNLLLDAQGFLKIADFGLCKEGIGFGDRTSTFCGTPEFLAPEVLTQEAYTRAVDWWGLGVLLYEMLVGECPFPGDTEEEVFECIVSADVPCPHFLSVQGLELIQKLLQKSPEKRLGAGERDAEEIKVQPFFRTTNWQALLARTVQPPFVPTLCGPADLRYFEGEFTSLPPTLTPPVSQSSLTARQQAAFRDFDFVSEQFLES

Assay [1] addresses Strep-PKN3 (StrepII- and Flag-fused mouse PKN3) (mouse) (UniProt Q8K045). The assay can be described thus: co-IP; SrcF-transformed p130Cas-/- MEFs re-expressing p130Cas, transfected with Strep-PKN3; precipitation with Strep-Tactin Superflow resin; blots with anti-p130Cas, anti-Src, anti-Actin.
Assay [2] has as its target Flag and GFP-fused PKN3 KD (mouse) (mouse) (UniProt Q8K045). The assay can be described thus: co-IP; MDA-MB-231 cells transiently transfected with mouse Flag and GFP-fused PKN3 variants; immunoprecipitation with anti-Flag sepharose; blot with anti-p130Cas; 1% Triton lysis buffer.
Assay [3] deals with Flag and GFP-fused PKN3 WT (mouse) (mouse) (UniProt Q8K045). The assay is described as above.
The target of assay [4] is Flag and GFP-fused PKN3 mPR (mouse) (mouse) (UniProt Q8K045). The assay is described as above.

B1: p130Cas WT re-expressed in SrcF-transformed p130Cas-/- MEFs (SC cells) (protein, UniProt Q61140 1-874)
chain: MTVPNVLAKALYDNVAESPDELSFRKGDIMTVLERDTQGLDGWWLCSLHGRQGIVPGNRLKILVGMYDKKPVGPGPGPPATPPQPQPSLPQGVHAPVPPASQYSPMLPTAYQPQSDNVYLVPTPSKTQQGLYQAPGPNPQFQSPPAKQTSTFSKQTPHHSFPSPATDLYQVPPGPGSPAQDIYQVPPSAGIGHDIYQVPPSLDTRGWEGTKPPAKVVVPTRVGQGYVYEAAQTEQDEYDTPRHLLAPGPQDIYDVPPVRGLLPNQYGQEVYDTPPMAVKGPNGRDPLLDVYDVPPSVEKGLLSSSHHSVYDVPPSVSKDVPDGPLLREETYDVPPAFAKPKPFDPTRHPLILAAPPPDSPAAEDVYDVPPPAPDLYDVPPGLRRPGPGTLYDVPRERVLPPEVADGSVVDDGVYAVPPPAEREAPTDGKRLSASSTGSTRSSQSASSLEVVVPGREPLELEVAVESLARLQQGVSTTVAHLLDLVGSASGPGGWRGTSEPQEPPAQDLKAAVAAVHGAVHELLEFARGAVSNATHTSDRTLHAKLSRQLQKMEDVYQTLVVHGQVLDSGRGSPGFTPEDLDRLVACSRAVPEDAKQLASFLHGNASLLFRRTKAPGPGPEGSSSLHPNPTDKASSIQSRPLPSPPKFTSQDSPDGQYENSEGGWMEDYDYVHLQGKEEFEKTQKELLERGNIMRQGKGQLELQQLKQFERLEQEVSRPIDHDLANWTPAQPLVPGRTGGLGPSDRQLLLFYLEQCEANLTTLTDAVDAFFTAVATNQPPKIFVAHSKFVILSAHKLVFIGDTLSRQAKAADVRSQVTHYSNLLCDLLRGIVATTKAAALQYPSPSAAQDMVDRVKELGHSTQQFRRVLGQLAAA
As to B1, the binding entry in assay [1] is “binds”.

B2: p130Cas, endogenous in MDA-MB-231 cells (protein, UniProt P56945 1-870)
chain: MNHLNVLAKALYDNVAESPDELSFRKGDIMTVLEQDTQGLDGWWLCSLHGRQGIVPGNRLKILVGMYDKKPAGPGPGPPATPAQPQPGLHAPAPPASQYTPMLPNTYQPQPDSVYLVPTPSKAQQGLYQVPGPSPQFQSPPAKQTSTFSKQTPHHPFPSPATDLYQVPPGPGGPAQDIYQVPPSAGMGHDIYQVPPSMDTRSWEGTKPPAKVVVPTRVGQGYVYEAAQPEQDEYDIPRHLLAPGPQDIYDVPPVRGLLPSQYGQEVYDTPPMAVKGPNGRDPLLEVYDVPPSVEKGLPPSNHHAVYDVPPSVSKDVPDGPLLREETYDVPPAFAKAKPFDPARTPLVLAAPPPDSPPAEDVYDVPPPAPDLYDVPPGLRRPGPGTLYDVPRERVLPPEVADGGVVDSGVYAVPPPAEREAPAEGKRLSASSTGSTRSSQSASSLEVAGPGREPLELEVAVEALARLQQGVSATVAHLLDLAGSAGATGSWRSPSEPQEPLVQDLQAAVAAVQSAVHELLEFARSAVGNAAHTSDRALHAKLSRQLQKMEDVHQTLVAHGQALDAGRGGSGATLEDLDRLVACSRAVPEDAKQLASFLHGNASLLFRRTKATAPGPEGGGTLHPNPTDKTSSIQSRPLPSPPKFTSQDSPDGQYENSEGGWMEDYDYVHLQGKEEFEKTQKELLEKGSITRQGKSQLELQQLKQFERLEQEVSRPIDHDLANWTPAQPLAPGRTGGLGPSDRQLLLFYLEQCEANLTTLTNAVDAFFTAVATNQPPKIFVAHSKFVILSAHKLVFIGDTLSRQAKAADVRSQVTHYSNLLCDLLRGIVATTKAAALQYPSPSAAQDMVERVKELGHSTQQFRRVLGQLAAA
Consider B2, for which the values for the binding result in assay [2], in assay [3] and in assay [4] were “binds”, “binds” and “binds weakly”, respectively.

Values taken from article PMC6360386.
